Assay results as given in PubChem BioAssay AID894 (National Center for Advancing Translational Sciences (NCATS), 2007).
Several values for one entry are separate records, joined by “and”; a condition that tells them apart may be missing. Identical values can stand only once. The campaign covered roughly 150,000 compounds. About 6,500 (4.3%) were called active. This list was built around the results that the source calls inconclusive (neither active nor inactive); the mix of calls is not that of the screen. The call rests on the fitted dose curve; in most records, active means well fitted inhibition curve with a large enough effect (not every such curve was filed as active); inconclusive means small, poorly fitted or top-dose-only effect, or another doubt; inactive means no such curve, though single readings can be large or run the other way. No potency is given beside an inconclusive call; the fits are too rough.

Biological target: 15-hydroxyprostaglandin dehydrogenase [NAD(+)] (Homo sapiens) (UniProt P15428)
Sequence of UniProt P15428 (P15428 whole entry, looked up): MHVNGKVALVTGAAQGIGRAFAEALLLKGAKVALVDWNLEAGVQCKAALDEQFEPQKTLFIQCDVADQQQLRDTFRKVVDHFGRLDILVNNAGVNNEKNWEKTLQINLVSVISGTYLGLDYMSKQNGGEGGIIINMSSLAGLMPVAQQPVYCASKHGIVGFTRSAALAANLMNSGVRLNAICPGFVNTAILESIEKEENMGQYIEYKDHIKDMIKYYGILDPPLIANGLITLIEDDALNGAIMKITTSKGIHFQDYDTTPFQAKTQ
Experiment: qHTS Assay for Inhibitors of HPGD (15-Hydroxyprostaglandin Dehydrogenase)
Details: purified HPGD, NADH fluorescence kinetic, PGE2 substrate; activity change, negative = inhibition: stronger effect = lower value
Text: Human 15-Hydroxyprostaglandin dehydrogenase (HPGD) catalyzes the inactivation of prostaglandin E2, and plays a major role in cancer biology by antagonizing the oncogenic potential of cyclooxygenase type 2 (COX2). Assays are available, based on absorbance/fluorescence increase of NADH with the substrate 15-OH prostaglandin E2. References 1. Myung SJ, Rerko RM, Yan M, Platzer P, Guda K, Dotson A, Lawrence E, Dannenberg AJ, Lovgren AK, Luo G, Pretlow TP, Newman RA, Willis J, Dawson D, Markowitz SD. 15-Hydroxyprostaglandin dehydrogenase is an in vivo suppressor of colon tumorigenesis. […] 2. Yan M, Rerko RM, Platzer P, Dawson D, Willis J, Tong M, Lawrence E, Lutterbaugh J, Lu S, Willson JK, Luo G, Hensold J, Tai HH, Wilson K, Markowitz SD. 15-Hydroxyprostaglandin dehydrogenase, a COX-2 oncogene antagonist, is a TGF-beta-induced suppressor of human gastrointestinal cancers. Proc Natl Acad Sci U S A. 2004 Dec 14;101(50):17468-73. 3. Yang L, Amann JM, Kikuchi T, Porta R, Guix M, Gonzalez A, Park KH, Billheimer D, Arteaga CL, Tai HH, Dubois R, Carbone DP, Johnson DH. Inhibition of Epidermal Growth Factor Receptor Signaling Elevates 15-Hydroxyprostaglandin Dehydrogenase in Non-Small-Cell Lung Cancer. Cancer Res. 2007 Jun 15;67(12):5587-5593. Inhibition of HPGD activity was screened by utilizing prostaglandin as an electron donor and NAD+ as an electron acceptor/cofactor. An increase in the fluorescence intensity due to conversion of NAD+ to NADH was used to measure the enzyme activity. NIH Chemical Genomics Center [NCGC] Structural Genomics Consortium [SGC]
Buffer: 50 mM Tris-HCl, 0.01% Tween 20, pH 8. Enzyme Buffer: 50 mM Tris-HCl, 0.5 mM NAD+ and 0.01% Tween 20, pH 8. Reagents/Controls: Buffer in columns 3 and 4 as negative control (no enzyme). Substrate/cofactor solution: 1 mM NAD+ and 30 uM prostaglandin (Sigma, prostaglandin E2, # P5640) final concentrations dispensed throughout the plate. Enzyme: 20 nM HPGD final concentration in columns 1, 2, 5-48. Column 1 and 2 is neutral (100% activity). A titration of control inhibitor GW5074 (G6416 Sigma-Aldrich, St. Louis, MO) top concentration 10 mM in DMSO, then 1:2 dilution for a total of 16 concentrations in duplicate) was pin-transferred into column 2. Assay Steps: Three uL of enzyme were dispensed to 1536-well Greiner black solid bottom plates. Compounds and control inhibitor (23 nL) were transferred via Kalypsys PinTool. The plates were incubated for 15 min at room temperature, and then 1 uL of substrate/cofactor solution was added to start the reaction. The plates were immediately transferred to and read 5 times every 30 seconds on ViewLux High-throughput CCD imager (Perkin-Elmer) using 360 nm excitation and 450 nm emission fluorescence protocol. The fluorescence intensity difference between the last and the first time points was used to compute reaction progress.
On the % scale 0 is the no-effect control and ±100 the full control effect; potency means the concentration at half of the fitted maximal effect; tags describe the fitted curve by direction and shape.

SMILES | Potency | activity change, negative = inhibition
CC1CCCN(S(=O)(=O)c2ccc(NC(=O)c3cccc(-n4cnnn4)c3)cc2)C1 (stereo not drawn) | active: 28.2 µM | 
COc1cc2c(cc1NC(=O)c1ccc3c(c1)OCO3)oc1ccccc12 | inconclusive [inhibitor, partial curve] | 
CN(C)c1ncc2ncc(=O)n(Cc3cccs3)c2n1 | inconclusive [inhibitor, partial curve] | 
CCCOC(=O)Nc1ccc(N2CCCCC2)cc1 | inconclusive [inhibitor, partial curve] | 
CC(C)Cn1c(=O)n(C)c(=O)c2[nH]cnc21 |  | inactive: -6.26% and inactive: -9.53% and inactive: -5.47%
O=C(Oc1cc2oc(=O)cc(-c3ccccc3)c2cc1Cl)C1CCCCC1 | inconclusive [inhibitor, partial curve] | 
O=C1CSC(=S)N1CC1CCCO1 (stereo not drawn) |  | inactive: -1.99%
CCOC(=O)N1CCN(C(=O)c2cccn3c(=O)c4sccc4nc23)CC1 | inconclusive [inhibitor, partial curve] | 
O=C(CSc1nnnn1-c1cccc2c1CCCC2)N1CCCC1 |  | inactive: -23.6%
COc1cccc(-n2c(COc3ccc(C)cc3)nnc2SCC(=O)O)c1 | active: 25.1 µM | 
Cc1ccc[n+](CC(=O)c2cc3ccccc3oc2=O)c1 | inconclusive [inhibitor, partial curve] | 
Cc1cccc(CNc2ccnc(-c3ccccc3CN(C)C)n2)c1 |  | inactive: -16.3%
Cc1cc(C(=O)OCC(=O)c2ccc3c(c2)OCCO3)c(C)o1 | active: 20 µM | 
O=C1[C@@H]2[C@@H]3C[C@@H]([C@H]4ON=C(c5ccc(Cl)cc5)[C@@H]34)[C@@H]2C(=O)N1C1CCCCC1 |  | inactive: -10.8%
COc1ccc(-c2cc3c(=O)n(CC(=O)NC4CCN(Cc5ccccc5)CC4)ncn3n2)cc1 |  | inactive: -12.2%
O=C(Oc1ccc2c3c(c(=O)oc2c1)CCCC3)c1cccs1 | inconclusive [inhibitor, partial curve] | 
Cc1cc(OCCCC(=O)N2CCCCC2)cc(C)c1Cl | active: 7.94 µM | 
COc1ccc(OC)c(Nc2nc(N)nc(-c3cc4ccccc4o3)n2)c1 | inconclusive [inhibitor, partial curve] | 
N/C(Cc1ccc(Cl)cc1)=N\OC(=O)C1CCCCC1 |  | inactive: -11.8%
CC(C)N(C(=O)c1ccc2nc(-c3ccccc3)c(-c3ccccc3)nc2c1)C(C)C | inconclusive [inhibitor, partial curve] | 
O=C(c1ccc(CSCc2ccccc2F)o1)N1CCN(c2ccc(N3CCOCC3)nn2)CC1 | inconclusive [inhibitor, partial curve] | 
FC(F)(F)c1cccc(-c2nc3nc(Cl)c(Cl)nc3[nH]2)c1 | inconclusive [inhibitor, partial curve] | 
O=C(N/N=C/c1cn(-c2ccccc2)nc1-c1ccc(F)cc1)c1ccc(Br)o1 | inconclusive [inhibitor, single point] | 
COc1ccc(CN(C(=O)c2cccs2)C(C(=O)NC2CCCCC2)c2ccc3ncccc3c2)cc1 (stereo not drawn) |  | inactive: -10.9%
Nc1nnc(CCS(=O)(=O)c2ccc(Cl)cc2)s1 |  | inactive: -7.35%

SMILES | Potency | activity change, negative = inhibition
Cc1ccccc1CSCCNC(=O)c1ccccc1 | active: 31.6 µM | 
NC(=O)c1oc2ccccc2c1NC(=O)CCc1ccccc1 | inconclusive [inhibitor, partial curve] | 
O=C(O)c1c(Sc2ccccc2)c2cc(Cl)ccc2n1Cc1ccc(Cl)cc1 |  | inactive: -0.855%
Cc1ccccc1NC1=C(Cl)C(=O)N(C2CCCCC2)C1=O | inconclusive [inhibitor, partial curve] | 
COc1ccc(C=O)cc1CSc1nnc(COc2cccc3cccnc23)o1 | inconclusive [inhibitor, single point] | 
Cc1ncc([N+](=O)[O-])n1Cc1ccccc1 |  | inactive: -13.2%
Cc1ccc(C=Nc2ccccc2C(N)=O)s1 | inconclusive [inhibitor, partial curve] | 
CC(C)C(=O)N1CCN(c2nc(-c3ccccc3)c3c(c2C#N)CC(C)(C)OC3)CC1 | inconclusive [inhibitor, partial curve] | 
O=C(C1CC(=O)N(C2CCCC2)C1)N1CCC(Cc2ccccc2)CC1 (stereo not drawn) |  | inactive: -3.03%
COCCNC(=O)c1cc2c(=O)n3cccc(C)c3nc2n1C | inconclusive [inhibitor, partial curve] | 
Cc1ccc(S(=O)(=O)Nc2nsc(N)n2)cc1 |  | inactive: -9.63%
Cc1cccc(N2C(N)=C(C#N)C(C#N)(C#N)C2c2ccccc2)c1 (stereo not drawn) | inconclusive [inhibitor, partial curve] | 
O=C(Nc1nccs1)c1cc(-c2ccccc2)nn1-c1ccccc1 | inconclusive [inhibitor, partial curve] | 
COc1cc(/C=C(/C#N)c2nc3ccccc3c(=O)[nH]2)ccc1O | active: 14.1 µM | 
O=C(c1ccc(S(=O)(=O)N2CCOCC2)cc1)N1CCc2ccccc2C1 | inconclusive [inhibitor, single point] | 
C=CCN(CC=C)CCOc1cccc2ccccc12 | inconclusive [inhibitor, partial curve] | 
COc1cccc(-c2nc(-c3ccc4c(c3)-c3ccccc3S4(=O)=O)c(-c3ccccc3)[nH]2)c1OC | inconclusive [inhibitor, partial curve] | 
COCCCNC(=O)c1ccccc1SC | active: 31.6 µM | 
CCOc1cc(/C=C2\C(=O)N(c3cccc(C(F)(F)F)c3)C(=O)c3ccccc32)ccc1O | inconclusive [inhibitor, single point] | 
O=C(O)[C@H]1O[C@H]1C(=O)O |  | inactive: -3.12%
Cc1nn(-c2ccccc2)c2c1C(c1ccc(F)cc1)C(C#N)=C(N)O2 (stereo not drawn) | inconclusive [inhibitor, full curve, poor fit] | 
CC1CCCN(C(=O)C2CCN(S(=O)(=O)c3cccc4cccnc34)CC2)C1 (stereo not drawn) | active: 14.1 µM | 
NC(=O)CCC(NS(=O)(=O)c1ccc(Cl)cc1)C(=O)NCc1ccccc1 (stereo not drawn) |  | inactive: -0.944%
CCOc1ccccc1Oc1c(C)oc2c(CN3CCN(C)CC3)c(O)ccc2c1=O | inconclusive [inhibitor, partial curve] | 
Cn1c(=O)c([N+](=O)[O-])c(NCc2ccccc2)c2ccccc21 | active: 6.31 µM | 

SMILES | Potency | activity change, negative = inhibition
N[C@H](Cc1cc(I)c(Oc2cc(I)c(O)c(I)c2)c(I)c1)C(=O)O |  | inactive: -4.93%
CNCC(O)Cn1c(C(F)(F)F)nc2ccccc21 (stereo not drawn) |  | inactive: -6.31%
COc1ccc(-c2nc(=S)[nH][nH]2)cc1 | active: 12.6 µM | 
CCSC1=C(C#N)C2(CCCC2)C(C#N)=C(N)N1 | inconclusive [inhibitor, partial curve] | 
CCCCn1c(-c2ccc(Cl)cc2)nc2c(=O)n(C)c(=O)[nH]c21 | inconclusive [inhibitor, partial curve] | 
CN(C)CCCNc1oc(-c2ccc(Cl)cc2)nc1C#N | inconclusive [inhibitor, partial curve] | 
CC1=C(CC[C@H](C)CO)O[C@@H]2C[C@@H]3[C@H]4CC[C@H]5C[C@@H](O)CC[C@]5(C)[C@@H]4CC(=O)[C@@]3(C)[C@@H]12 |  | inactive: -2.67%
O=C1N=C(N2CCC(Cc3ccccc3)CC2)S/C1=C/c1cn[nH]c1-c1ccccc1 | active: 25.1 µM | 
O=C(OCn1nnc2ccccc2c1=O)C1CCCCC1 | active: 11.2 µM | 
CCOC(=O)NN1C(=O)c2ccccc2NC1c1ccccc1O (stereo not drawn) | inconclusive [inhibitor, partial curve] | 
CCc1cccc(C)c1NC(=O)c1cc(C)oc1C |  | inactive: -8.24%
O=c1[nH]c2ccccc2n2c(-c3ccccc3)nnc12 | inconclusive [inhibitor, full curve] | 
O=C(c1cc2nc(-c3ccc(F)cc3)cc(C(F)(F)F)n2n1)N1CCOCC1 | inconclusive [inhibitor, partial curve] | 
CC(Nc1oc(-c2ccco2)nc1C#N)c1ccccc1 (stereo not drawn) | inconclusive [inhibitor, partial curve] | 
COc1ccccc1-c1cc2ccccc2[nH]1 | inconclusive [inhibitor, partial curve] | 
CN(C)c1ccnc2sc(C(=O)NCc3ccccc3)c(N)c12 | inconclusive [inhibitor, partial curve] | 
CC(=O)NS(=O)(=O)c1ccc(NC(=S)NC(=O)C(C)C)cc1 |  | inactive: -0.41%
Clc1ccc(Cl)c2sc(N3CCCC3)nc12 | inconclusive [inhibitor, partial curve] | 
CCOc1ccc(S(=O)(=O)N2CCN(C(=O)c3sccc3C)CC2)cc1 |  | inactive: -12.1%
Nc1ccccc1SCC(=O)N1CCc2ccccc21 | inconclusive [inhibitor, partial curve] | 
COc1ccc(C(=O)N(Cc2ccco2)Cc2cccs2)c(O)c1 | inconclusive [inhibitor, single point] | 
O=C(CSc1nc2ccccc2o1)N1N=C(c2cccs2)CC1c1ccc(F)cc1 (stereo not drawn) | inconclusive [inhibitor, partial curve] | 
Cc1ccccc1/C=c1\s/c(=C\C(=O)C(C)(C)C)[nH]c1=O | inconclusive [inhibitor, partial curve] | 
